Results: the supplement of paper PMC7826260
This is one part of the list. Each Rep nickase domain was tested in vitro on the same pool of single strands at 3 µM enzyme and 37 °C for 1 h; the strands have 90 letters, of which the middle is given. Uncut reads are compared with the no-enzyme pool on a log2 scale; strong cutting gives strongly negative numbers. There is no active / inactive call. Shares of all reads are compared; uncut strands gain when others are lost, and binding without cutting may add a little.

Test system: T1, Rep nickase domain of tomato golden mosaic virus
T1 sequence (Rep 1-124, printed without the tag): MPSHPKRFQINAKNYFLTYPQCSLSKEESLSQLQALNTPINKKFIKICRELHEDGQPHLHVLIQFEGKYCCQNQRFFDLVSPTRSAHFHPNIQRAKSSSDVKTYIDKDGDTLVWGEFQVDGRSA
Assay: uncleaved DNA left, log2 of reads against the no-enzyme library (log2 ratio); higher = less cleavage (more negative = more Rep cleavage of the k-mer); sequences stand for … in CTCGTCCG…ACCGGAGA
Method: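 A pool of 90-nt single-stranded DNAs with seven random bases just before the constant AC of the nick site (name = the seven bases) was cut by 3 µM recombinant His6-SUMO-tagged Rep nickase domain (300 nM DNA, 50 mM HEPES pH 8.0, 50 mM NaCl, 1 mM MnCl2, 1 h, 37 °C, three replicates). Uncut DNA was amplified and sequenced.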

Sequence	uncleaved DNA left (log2)
CTCTGTT	-0.137
ATTGTGC	-0.0971
TCTAGAA	0.0698
GGCAAGA	0.0408
CCTGAGT	-0.0432
ATACGCA	0.0117
CTTTTGC	-0.119
TCCAAAC	0.0871
ACGTCAA	0.00476
TGCGCCG	-0.0662
TACACGC	-0.127
CAGCAAA	0.0717
AGCGCGA	-0.018
ATACCAT	-0.0357
GGTTGTC	0.0769
TTTATCT	-0.0299
CCATGCA	-0.0856
ACGAAAC	-0.0195
GGTAACA	0.0458
CATTCGG	-0.037

Sequence	uncleaved DNA left (log2)
GTATAAG	0.0983
CCCGTTA	-0.211
ATGTTCA	0.0571
TAAACAA	-0.0456
TAATGAC	-0.276
GGGCCTT	-0.00187
CACCACA	-0.114
AGTGAGT	0.0819
TAGTGTA	0.0173
CTCAGAA	-0.00477
AAGAGTA	0.124
CCTCCGG	0.0106
AGAGTGC	0.0846
GTGCCTG	-0.0772
TGATTAT	0.0489
ACCATCT	-0.116
CTACACA	-0.167
AGCCAAT	0.102
TGTATGA	-0.0723
TCAGACA	-0.108
